Reference: PubChem BioAssay AID1768 (National Center for Advancing Translational Sciences (NCATS), 2009)
Hit rate of the full screen: of about 270,000 compounds, about 620 (0.23%) were called active. This list was built around the results that the source calls inconclusive (neither active nor inactive); the mix of calls is not that of the screen. The call rests on the fitted dose curve; in most records, active means well fitted inhibition curve with a large enough effect in the polarisation, with a control signal flat (not every such curve was filed as active); inconclusive means small, poorly fitted or top-dose-only effect, or effect the other way, or a change in a side signal; inactive means no such curve, though single readings can be large or run the other way; the % refers to the polarisation. Potencies of inconclusive entries are doubtful fits and often do not repeat. “Side channel” marks fits to a control or component signal instead of the main read-out.

target: Menin (Homo sapiens) (UniProt O00255); assay: qHTS Assay for Inhibitors Targeting the Menin-MLL Interaction in MLL Related Leukemias: Competition With Texas Red Labeled MLL-derived Mutant Peptide; conditions: fluorescence polarization; series mostly up to 61.6 µM
Sequence of UniProt O00255 (O00255 whole entry, looked up): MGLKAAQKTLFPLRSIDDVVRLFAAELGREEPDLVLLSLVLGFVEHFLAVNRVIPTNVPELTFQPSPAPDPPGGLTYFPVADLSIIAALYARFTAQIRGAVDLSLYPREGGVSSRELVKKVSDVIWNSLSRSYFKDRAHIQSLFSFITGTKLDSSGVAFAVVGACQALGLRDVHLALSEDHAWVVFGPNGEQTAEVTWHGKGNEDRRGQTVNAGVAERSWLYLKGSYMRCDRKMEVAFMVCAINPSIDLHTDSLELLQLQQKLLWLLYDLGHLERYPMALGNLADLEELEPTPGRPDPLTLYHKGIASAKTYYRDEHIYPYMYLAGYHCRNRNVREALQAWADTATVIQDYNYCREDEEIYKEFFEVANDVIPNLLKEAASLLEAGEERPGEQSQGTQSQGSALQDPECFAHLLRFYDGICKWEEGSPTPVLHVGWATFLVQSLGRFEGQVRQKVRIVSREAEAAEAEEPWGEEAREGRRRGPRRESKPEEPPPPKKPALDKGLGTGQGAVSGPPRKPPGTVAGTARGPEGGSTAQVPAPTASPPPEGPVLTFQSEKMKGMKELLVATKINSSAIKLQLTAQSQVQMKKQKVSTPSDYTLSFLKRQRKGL
Potency means the concentration at half of the fitted maximal effect; tags describe the fitted curve by direction and shape or compound fluorescence and quenching.

Potency, inactive:
CCc1cccc2c(C(=O)CSc3nncn3-c3ccc(OC)cc3)c[nH]c12
Cc1nn(-c2ccccc2)c(C)c1/C=C/C(=O)OCC(=O)NC1CCS(=O)(=O)C1 (centres undefined)
O=C(O)c1ccc(Nc2nc3ccc(Cl)cc3[nH]2)cc1
O=C(CN1CC(=O)Oc2ccccc21)OCC(=O)c1cccc(Br)c1
COC(=O)c1ccccc1NC(=O)c1ccc(COc2ccc3c(c2)CCC3)cc1
CCNC(=O)Cc1c(OC)ccc2cc(Br)ccc12
Cc1ccc(CN2CCN(Cc3c(C)nn(-c4ccc(F)cc4)c3C)CC2CCO)o1 (centres undefined)
COc1ccc(C(=O)/C(Br)=C/C(=O)O)cc1
O=C(NCCN1CCN(Cc2ccc([N+](=O)[O-])cc2)CC1)C(=O)Nc1ccccc1
CNC(=S)N/N=C(\C)c1ccc(Cl)s1

Potency, inconclusive:
COc1ccc(C(=O)C2CCCN(Cc3cccn3-c3ccc(Cl)cn3)C2)c(OC)c1 (centres undefined) 2.24 µM [fluorescent, side channel, full curve]
CCCCC1C2=C(CC(C)(C)CC2=O)OC2=C1C(=O)CC(C)(C)C2 7.94 µM [fluorescent, side channel, partial curve, poor fit]
O=C(CCNS(=O)(=O)c1ccc2[nH]c(=O)oc2c1)Nc1cccc(Br)c1 39.8 µM [quencher, side channel, single point]
COc1ccccc1N1CCN(CC(O)COc2ccc(C)cc2C)CC1 (centres undefined) 11.2 µM [fluorescent, side channel, partial curve]
O=C(Nc1ccc(S(=O)(=O)Nc2ccc(F)cc2)cc1)c1ccc(CN2CCOCC2)cc1 8.91 µM [quencher, side channel, partial curve]
Cc1cccc(-c2nsc(SCC(=O)Nc3nccs3)n2)c1 8.91 µM [inhibitor, partial curve]
CCCCCCCCCCCCC/C=C/[C@@H](O)[C@@H](N)CO 7.94 µM [fluorescent, side channel, partial curve]
O=[N+]([O-])c1cc(Cl)c2cccnc2c1O 12.6 µM [quencher, side channel, partial curve]
O=C(Cc1ccccc1)Nc1ccc(NC(=O)c2ccco2)cc1Cl 39.8 µM [fluorescent, side channel, single point]
O=C(CN1CCN(Cc2ccccc2)CC1)N1CCCc2ccccc21 44.7 µM [inhibitor, partial curve, poor fit]
CC/C(=N\NC(=O)c1c(C)nc2ccccn12)c1ccc(Cl)cc1 44.7 µM [inhibitor, partial curve]
O=C(CCCN1C(=O)c2cccc3cccc(c23)C1=O)N1CCN(c2ccc(F)cc2)CC1 11.2 µM [inhibitor, partial curve]
O=CNc1ccc(OC(=O)c2cncc(Br)c2)cc1 39.8 µM [fluorescent, side channel, single point]
COc1cc(/C=C/c2ccc3c(Br)cc(Br)c(O)c3n2)ccc1O 8.91 µM [quencher, side channel, partial curve]
Cc1ccc(NC(=S)Nc2cc(-c3ccccc3)[nH]n2)cc1Cl 39.8 µM [inhibitor, single point]
C=CCc1cccc(C=Nc2cccn3cc(-c4ccccc4)nc23)c1O 7.94 µM [inhibitor, partial curve]
O=c1cc(N2CCc3ccccc32)[nH]c(=O)n1-c1ccc(Br)cc1 35.5 µM [quencher, side channel, single point]
O=C(CN1C(=O)S/C(=C\c2ccc(O)cc2)C1=O)c1ccccc1 20 µM [quencher, side channel, partial curve]
COc1ccccc1C1CC(=O)Oc2cc(O)ccc21 (centres undefined) 15.8 µM [quencher, side channel, partial curve]
O=C(O)c1ccc(-n2nnnc2SCc2ccccc2Br)cc1 25.1 µM [quencher, side channel, single point]
Cc1cc2c(cc1S(=O)(=O)N1CCN(c3ccccc3)CC1)OCC(=O)N2 39.8 µM [inhibitor, single point]
O=C(Nc1cccc(S(=O)(=O)Nc2ccc(Cl)cc2)c1)c1cc2c(s1)CCCC2 2.82 µM [quencher, side channel, full curve]
Cc1ccc(NC(=O)C2CCN(S(=O)(=O)c3ccc4[nH]c(=O)oc4c3)CC2)cc1F 14.1 µM [quencher, side channel, partial curve]
CC(=O)Nc1ccc(NC(=O)c2ccc(COc3ccc(C)cc3)o2)cc1 39.8 µM [fluorescent, single point]
CCCN(CCC)S(=O)(=O)c1ccc(C(=O)Nc2ccc(S(=O)(=O)Nc3nnc(CC)s3)cc2)cc1 3.55 µM [quencher, side channel, partial curve]
Cc1cccc(OCCNC(=O)c2ncn[nH]2)c1 39.8 µM [inhibitor, single point]
O=C(O)C1Nc2c(O)cc(Cl)c([N+](=O)[O-])c2C2C=CCC12 (centres undefined) 7.94 µM [quencher, side channel, partial curve]
CCc1ccc(NC(=O)COn2nnc3ccc(S(=O)(=O)N(C)C)cc32)cc1 31.6 µM [quencher, side channel, single point]
Cc1ccc(OCCN2CCN(c3ncnc4sc(C)c(C)c34)CC2)cc1 22.4 µM [fluorescent, side channel, partial curve, poor fit]
O=C(Cc1ccc(-n2cccc2)cc1)NC1CCCCC1 39.8 µM [inhibitor, single point]
COc1cc(/C=C2\C(=O)NN(c3ccc(C)cc3)C2=O)cc([N+](=O)[O-])c1O 17.8 µM [quencher, side channel, partial curve]
COc1ccc(NC(=O)/C=C/c2ccccc2[N+](=O)[O-])c(OC)c1 14.1 µM [quencher, side channel, partial curve]
Cc1ccc(O)c(N=Nc2ccc(S(=O)(=O)N3CCOCC3)cc2)c1 12.6 µM [quencher, side channel, partial curve]
O=C1NN(c2ccccc2)C(=O)/C1=C\c1cccn1-c1ccc(Cl)c([N+](=O)[O-])c1 39.8 µM [quencher, side channel, single point]
COc1ccc(Nc2ccccc2NC(=O)c2ccccc2Br)cc1 11.2 µM [quencher, side channel, partial curve]
O=C(OCC(=O)N1CCN(C(=O)c2ccco2)CC1)c1cc(-c2ccccc2)nc2ccccc12 17.8 µM [quencher, side channel, single point]
CCS(=O)(=O)c1ncc(Cl)c(C(=O)Nc2ccc(S(=O)(=O)N3CCCC(C)C3)cc2)n1 (centres undefined) 12.6 µM [quencher, side channel, partial curve]
Cc1cc(-c2csc(Nc3ccccn3)n2)ccc1F 14.1 µM [quencher, side channel, partial curve]
Cc1cccc(Oc2cc(NC(=O)c3ccccc3)cc([N+](=O)[O-])c2)c1 1.58 µM [quencher, side channel, full curve]
O=C(Nc1ccc(Cl)cn1)c1ccc(COc2ccccc2Br)o1 31.6 µM [quencher, side channel, single point]
O=C(Cn1nnc2ccccc2c1=O)Nc1ccc(S(=O)(=O)N2CCOCC2)cc1 39.8 µM [quencher, side channel, single point]
CC(C)n1cc(/C=N\NC(=O)c2cc3c(ccc4ccccc43)o2)c2ccccc21 28.2 µM [quencher, side channel, partial curve]
CC(=O)c1sc(NCCOc2ccc(C)cc2)nc1C 25.1 µM [fluorescent, partial curve]
CCOc1ccccc1C(=O)Nc1ccc(NC(=O)c2ccccc2)cc1 39.8 µM [fluorescent, side channel, single point]
CCCOc1ccc(-c2nc(C#N)c(N3CCN(CC)CC3)o2)cc1 35.5 µM [fluorescent, side channel, single point]
COCc1cc(C)nc(SCC(=O)Nc2cccc3cccnc23)c1C#N 31.6 µM [inhibitor, single point]
CCOc1cc(/C=N/Nc2nncc(-c3ccccc3)n2)ccc1O 14.1 µM [quencher, side channel, partial curve]
O=S(=O)(NN=C1CCCCC1)c1ccccc1 39.8 µM [fluorescent, side channel, single point]
Cc1nc2c(-c3ccc(F)cc3)cnn2c(N)c1-c1ccc(F)cc1 3.55 µM [quencher, side channel, full curve]
